Measured values taken from patent publication US12116397B2, “IL-IR-I binding polypeptide” (Swedish Orphan Biovitrum AB (publ), priority 2017, dated 2024).

What was measured:
[1] = biological target: T1, FCγR3A (Homo sapiens, UniProt P08637); test: FCγR3A affinity analysis by Biolayer Interferometry; assay type: binding
T1 construct: purchased Sino Biological
Description: The affinity towards FCγR3A was analysed with Biolayer Interferometry essentially as disclosed in Example 10, with the exception that biotinylated FCγR3A (Sino Biological) was immobilized on a Streptavidin biosensor for kinetics (Pall/Fortebio) and the proteins were tested using concentrations of 100 and 1000 nM. In addition Human IgG (GammaNorm, Octapharma) was used as control in the measurements.

[2] = biological target: T2, human biotinylated FcRn (Homo sapiens, UniProt P55899); test: Biacore FcRn affinity analysis; assay type: binding; settings: five concentrations 2.5-200 nM
T2 construct: purchased Immunitrack ApS

T1 sequence (P08637 17-254): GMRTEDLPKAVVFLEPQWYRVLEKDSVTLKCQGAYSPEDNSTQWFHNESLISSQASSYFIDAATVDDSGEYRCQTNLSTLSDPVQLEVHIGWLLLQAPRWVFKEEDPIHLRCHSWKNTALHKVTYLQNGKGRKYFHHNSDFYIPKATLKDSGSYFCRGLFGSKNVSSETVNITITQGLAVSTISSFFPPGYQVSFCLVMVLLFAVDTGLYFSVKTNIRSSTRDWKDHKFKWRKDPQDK

binding to FCγR3A ([1]; at 100 nM): no binding
binding to FCγR3A ([1]; at 1000 nM): weak binding
binding/affinity towards FCγR3A (conclusion) ([1]; mutated Fc portions): low affinity
B1: PS10656: fusion of Z18754 with IgG4 Fc, S228P mutation in the hinge region (protein)
chain: AEAKYAKEVEEIQMEIFRLPNLTRRQYTAFIRKLLDDPSQSSELLSEAKKLSESQAPKASGGGGSGGGGS[sequence of human IgG4 Fc with S228P (EU numbers) omitted]
modifications: Engineered IL-1R-I binding polypeptide
notes: fusion of Z18754 with IgG4 Fc, S228P mutation in the hinge region
affinity towards FcRn (order / change) [2]: SEQ ID NO 1735>SEQ ID NO 1736>SEQ ID NO 1734=SEQ ID NO 1737
